Data published in US20190367516A1 (Bayer Pharma Aktiengesellschaft, priority 2015, published 2019).

Target: T1, human M2 receptor (Homo sapiens, UniProt P08172)
T1 sequence (P08172 1-466): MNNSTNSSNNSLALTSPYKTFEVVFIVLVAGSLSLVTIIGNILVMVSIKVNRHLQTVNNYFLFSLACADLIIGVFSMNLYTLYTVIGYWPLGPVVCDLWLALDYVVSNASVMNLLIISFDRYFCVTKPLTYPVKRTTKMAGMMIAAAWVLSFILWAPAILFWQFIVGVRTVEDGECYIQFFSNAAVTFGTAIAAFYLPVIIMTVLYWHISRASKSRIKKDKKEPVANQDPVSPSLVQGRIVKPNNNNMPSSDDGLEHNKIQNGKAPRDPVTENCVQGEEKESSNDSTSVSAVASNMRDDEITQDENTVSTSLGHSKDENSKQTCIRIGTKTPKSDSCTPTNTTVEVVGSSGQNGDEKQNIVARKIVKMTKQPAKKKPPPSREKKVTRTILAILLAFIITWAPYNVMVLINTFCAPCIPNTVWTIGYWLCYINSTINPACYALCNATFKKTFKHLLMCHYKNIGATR
Details: boosting of the acetylcholine effect at an EC20 acetylcholine concentration; for Emax: read-out: Efficiency, M2-GIRK1/4 activation test; for Efficiency: M2-GIRK1/4 activation test

SMILES	Emax	Efficiency
O=C(NC12CC(C1)C2)c1cn(-c2c(F)cc(F)cc2F)c2nc(N3C[C@@H](O)CC3=O)ccc2c1=O [Example 358, N-(Bicyclo[1.1.1]pent-1-yl)-7-[(4S)-4-hydroxy-2-oxopyrrolidin-1-yl]-4-oxo-1-(2,4,6-trifluorophenyl)-1,4-dihydro-1,8-naphthyridine-3-carboxamide]	95%	–
O=C(NC12CC3CC(CC(C3)C1)C2)c1cn(-c2ccc(F)cc2F)c2nc(N3CCCC(O)C3)ccc2c1=O (racemic) [Example 14, rac-1-(2,4-Difluorophenyl)-7-(3-hydroxypiperidin-1-yl)-4-oxo-N-(tricyclo[3.3.1.1^3,7]dec-1-yl)-1,4-dihydro-1,8-naphthyridine-3-carboxamide]	97.7%	–
C[C@@H](COC(F)(F)F)NC(=O)c1cn(-c2c(F)cc(F)cc2F)c2nc(N3C[C@@H](O)CC3=O)ccc2c1=O [Example 339, 7-[(4S)-4-Hydroxy-2-oxopyrrolidin-1-yl]-4-oxo-N-[(2S)-1-(trifluoromethoxy)propan-2-yl]-1-(2,4,6-trifluorophenyl)-1,4-dihydro-1,8-naphthyridine-3-carboxamide]	94%	–
CC[C@H](NC(=O)c1cn(-c2c(F)cc(F)cc2F)c2nc(N3CCN(CCO)C3=O)ccc2c1=O)C(F)(F)F [Example 362, 7-[3-(2-Hydroxyethyl)-2-oxoimidazolidin-1-yl]-4-oxo-N-[(2S)-1,1,1-trifluorobutan-2-yl]-1-(2,4,6-trifluorophenyl)-1,4-dihydro-1,8-naphthyridine-3-carboxamide]	97%	–
CN(CCF)c1ccc2c(=O)c(C(=O)NC34CC5CC(CC(C5)C3)C4)cn(-c3ccc(F)cc3F)c2n1 [Example 101, 1-(2,4-Difluorophenyl)-7-[(2-fluoroethyl)(methyl)amino]-4-oxo-N-(tricyclo[3.3.1.1^3,7]dec-1-yl)-1,4-dihydro-1,8-naphthyridine-3-carboxamide]	76.8%	–
O=C(NC12CC3CC(CC(C3)C1)C2)c1cn(-c2ccc(F)cc2F)c2nc(N3CC4C(C3)C4(F)F)ccc2c1=O (centres unmarked) [Example 2, 7-(6,6-Difluoro-3-azabicylco[3.1.0]hex-3-yl)-1-(2,4-difluorophenyl)-4-oxo-N-(tricyclo[3.3.1.1^3,7]dec-1-yl)-1,4-dihydro-1,8-naphthyridine-3-carboxamide]	100%	–
O=C(NC1(C(F)(F)F)CCCC1)c1cn(-c2c(F)cc(F)cc2F)c2nc(N3C[C@@H](O)[C@H](O)C3)ccc2c1=O [Example 350, 7-[(3R,4R)-3,4-Dihydroxypyrrolidin-1-yl]-4-oxo-N-[1-(trifluoromethyl)cyclopentyl]-1-(2,4,6-trifluorophenyl)-1,4-dihydro-1,8-naphthyridine-3-carboxamide]	98.5%	–
O=C(NC1(C(F)(F)F)CCOCC1)c1cn(-c2ccc(F)cc2F)c2nc(N3C[C@@H](O)CC3=O)ccc2c1=O [Example 237, 1-(2,4-Difluorophenyl)-7-[(4S)-4-hydroxy-2-oxopyrrolidin-1-yl]-4-oxo-N-[4-(trifluoromethyl)tetrahydro-2H-pyran-4-yl]-1,4-dihydro-1,8-naphthyridine-3-carboxamide]	100%	–
CC[C@@H](NC(=O)c1cn(-c2c(F)cccc2F)c2nc(N3CCC(C)(O)C3)ccc2c1=O)C(F)(F)F (single isomer, unassigned) [Example 277]	98.5%	–
O=C(NC12CC3CC(CC(C3)C1)C2)c1cn(-c2ccc(F)cc2F)c2nc(N3CCC(F)(CO)CC3)ccc2c1=O [Example 16, 1-(2,4-Difluorophenyl)-7-[4-fluoro-4-(hydroxymethyl)piperidin-1-yl]-4-oxo-N-(tricyclo[3.3.1.1^3,7]dec-1-yl)-1,4-dihydro-1,8-naphthyridine-3-carboxamide]	97.3%	–
CC(C)(C)[C@H](NC(=O)c1cn(-c2c(F)cc(F)cc2F)c2nc(N3CCNC3=O)ccc2c1=O)C(F)(F)F [Example 359, 4-Oxo-7-(2-oxoimidazolidin-1-yl)-N-[(2S)-1,1,1-trifluoro-3,3-dimethylbutan-2-yl]-1-(2,4,6-trifluorophenyl)-1,4-dihydro-1,8-naphthyridine-3-carboxamide]	98.5%	–
CC[C@@H](NC(=O)c1cn(-c2c(F)cc(F)cc2F)c2nc(N3CCC(O)C3=O)ccc2c1=O)C(F)(F)F (stereo partly drawn) [Example 282, 7-[3-Hydroxy-2-oxopyrrolidin-1-yl-4-oxo-N-[(2R)-1,1,1-trifluorobutan-2-yl]-4-oxo-N-trifluorobutan-2-yl]-1-(2,4,6-trifluorophenyl)-1,4-dihydro-1,8-naphthyridine-3-carboxamide]	–	99.5%
CC[C@H](NC(=O)c1cn(-c2c(F)cc(F)cc2Cl)c2nc(N3C[C@@](C)(O)C[C@H]3C)ccc2c1=O)C(F)(F)F [Example 334, 1-(2-Chloro-4,6-difluorophenyl)-7-[(2R,4S)-4-hydroxy-2,4-dimethylpyrrolidin-1-yl]-4-oxo-N-[(2S)-1,1,1-trifluorobutan-2-yl]-1,4-dihydro-1,8-naphthyridine-3-carboxamide]	84%	–
CC[C@@H](NC(=O)c1cn(-c2c(F)cccc2F)c2nc(N3CC4CC4(O)C3)ccc2c1=O)C(F)(F)F (single isomer, unassigned) [Example 306]	–	98.5%
O=C(NC12CC(C(F)(F)F)(C1)C2)c1cn(-c2c(F)cc(F)cc2F)c2nc(N3C[C@@H](O)CC3=O)ccc2c1=O [Example 372, 7-[(4S)-4-Hydroxy-2-oxopyrrolidin-1-yl]-4-oxo-N-[3-(trifluoromethyl)bicyclo[1.1.1]pent-1-yl]-1-(2,4,6-trifluorophenyl)-1,4-dihydro-1,8-naphthyridine-3-carboxamide]	100%	–
C[C@@H](COC(F)(F)F)NC(=O)c1cn(-c2c(F)cc(F)cc2Cl)c2nc(N3C[C@@H](O)[C@H](O)C3)ccc2c1=O [Example 322, 1-(2-Chloro-4,6-difluorophenyl)-7-[(3R,4R)-3,4-dihydroxypyrrolidin-1-yl]-4-oxo-N-[(2S)-1-(trifluoromethoxy)propan-2-yl]-1,4-dihydro-1,8-naphthyridine-3-carboxamide]	96%	–
CC[C@@H](NC(=O)c1cn(-c2c(F)cccc2F)c2nc(N3CCC(O)C3=O)ccc2c1=O)C(F)(F)F (single isomer, unassigned) [Example 294]	–	92.5%

Next, values leading:

Emax	Efficiency	SMILES
98%	–	CN(C)c1ccc2c(=O)c(C(=O)NC(C(C)(C)C)C(F)(F)F)cn(-c3ccc(F)cc3F)c2n1 (stereo in doubt) [Example 132, 1-(2,4-Difluorophenyl)-7-(dimethylamino)-4-oxo-N-[(2S)-1,1,1-trifluoro-3,3-dimethylbutan-2-yl]-1,4-dihydro-1,8-naphthyridine-3-carboxamide]
98%	–	O=C(NCc1c(Cl)cccc1Cl)c1cn(-c2ccc(F)cc2F)c2nc(N3CC(O)CC3=O)ccc2c1=O (centres unmarked) [compound 183]
98.7%	–	CC(CC(F)(F)F)NC(=O)c1cn(-c2ccc(F)cc2F)c2nc(N(C)C)ccc2c1=O (racemic) [Example 46, rac-1-(2,4-Difluorophenyl)-7-(dimethylamino)-4-oxo-N-[4,4,4-trifluorobutan-2-yl]-1,4-dihydro-1,8-naphthyridine-3-carboxamide]
92%	–	CC[C@@H](NC(=O)c1cn(-c2ccc(F)cc2F)c2nc(N3CCC(C)(OC)C3=O)ccc2c1=O)C(F)(F)F (mixture of isomers) [Example 197, 1-(2,4-Difluorophenyl)-7-[3-methoxy-3-methyl-2-oxopyrrolidin-1-yl]-4-oxo-N-[(2R)-1,1,1-trifluorobutan-2-yl]-1,4-dihydro-1,8-naphthyridine-3-carboxamide]
100%	–	CN(C)c1ccc2c(=O)c(C(=O)NCc3c(F)cccc3C(F)(F)F)cn(-c3ccc(F)cc3F)c2n1 [Example 60, 1-(2,4-Difluorophenyl)-7-(dimethylamino)-N-[2-fluoro-6-(trifluoromethyl)benzyl]-4-oxo-1,4-dihydro-1,8-naphthyridine-3-carboxamide]
–	94.7%	O=C(N[C@H](c1ccccc1Cl)C(F)(F)F)c1cn(-c2ccc(F)cc2F)c2nc(N3CCCC(O)C3=O)ccc2c1=O (single isomer, unassigned) [Example 209]
86.4%	–	CN(C)c1ccc2c(=O)c(C(=O)NC3(C(F)(F)F)CCCC3)cn(-c3ccc(F)cc3F)c2n1 [Example 151, 1-(2,4-Difluorophenyl)-7-(dimethylamino)-4-oxo-N-[1-(trifluoromethyl)cyclopentyl]-1,4-dihydro-1,8-naphthyridine-3-carboxamide]
40%	–	CC[C@H](NC(=O)c1cn(-c2ccc(F)cc2F)c2nc(N3CC=CC3=O)ccc2c1=O)C(F)(F)F [Example 286, 1-(2,4-Difluorophenyl)-4-oxo-7-(2-oxo-2,5-dihydro-1H-pyrrol-1-yl)-N-[(2S)-1,1,1-trifluorobutan-2-yl]-1,4-dihydro-1,8-naphthyridine-3-carboxamide]
95.5%	–	O=C(NC(c1c(F)cccc1F)C(F)(F)F)c1cn(-c2ccc(F)cc2F)c2nc(N3CCC(O)CC3=O)ccc2c1=O (racemic) [Example 252, rac-1-(2,4-Difluorophenyl)-N-[1-(2,6-difluorophenyl)-2,2,2-trifluoroethyl]-7-[4-hydroxy-2-oxopiperidin-1-yl]-4-oxo-1,4-dihydro-1,8-naphthyridine-3-carboxamide]
